# In PubChem BioAssay AID686978 (National Center for Advancing Translational Sciences (NCATS), 2013):
# Among all 420,000 compounds or so, about 64,000 (15%) were called active. This list was built around the results that the source calls inconclusive (neither active nor inactive); the mix of calls is not that of the screen. The call rests on the fitted dose curve; in most records, active means well fitted inhibition curve with a large enough effect; inconclusive means small, poorly fitted or top-dose-only effect; inactive means flat fitted curve, though single readings scatter. No potency is given beside an inconclusive call; the fits are too rough.
# Assay: qHTS for Inhibitors of human tyrosyl-DNA phosphodiesterase 1 (TDP1): qHTS in cells in absence of CPT; further: nearly all actives have a fitted effect of over 55% in size
# Conditions: DT40 Tdp1-/- hTDP1 cells, no CPT, ATP luminescence, 48 h; activity change, negative = growth inhibition: at 46.2 µM (top of the series) unless noted
# Method in brief: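 No-CPT arm: Tdp1-/-;hTDP1 DT40 cells (400/well) plus compounds, incubated ≥48 hr at 37 °C. Readout CellTiter-Glo luminescence.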
# On the % scale 0 is the no-effect control and ±100 the full control effect; potency means the concentration at half of the fitted maximal effect; tags describe the fitted curve by direction and shape.
SMILES,Potency,"activity change, negative = growth inhibition"
O=C(NCc1ccccc1)C(c1cccc2ccccc12)n1c(=O)c(-c2cc3ccccc3[nH]2)nc2ccccc21 (stereo not drawn),"inconclusive [inhibitor, single point]",
CCOc1ccc(-n2cc(-c3ccccc3)c3c(N4CCN(c5ccccc5OC)CC4)ncnc32)cc1,active: 16.4 µM,
CCOc1ccc(NC(=O)c2sc3nc4c(c(-c5ccc(OC)cc5)c3c2N)C(=O)CC(C)(C)C4)cc1,"inconclusive [inhibitor, partial curve, poor fit]",
COc1ccc(N=c2oc3cc(O)ccc3cc2C(=O)Nc2ccccn2)cc1OC,active: 2.06 µM,
CSc1ccc(S(=O)(=O)Nc2ccc(NC(C)=O)cc2)cc1,"inconclusive [inhibitor, partial curve]",
COc1ccc(CCNCC(O)Cn2c3ccccc3c3ccccc32)cc1OC (stereo not drawn),active: 11.6 µM,
Cc1ccccc1S(=O)(=O)NC1OC(=O)C(Cl)=C1Cl (stereo not drawn),"inconclusive [inhibitor, single point]",
CCOC(=O)CSc1nc(-c2ccccc2)nc2ccccc12,"inconclusive [inhibitor, single point]",
COc1ccccc1Nc1nc(NCCCN(C)C)nc(N)c1[N+](=O)[O-],"inconclusive [inhibitor, single point]",
Cc1c(NP(=O)(c2ccc(Br)cc2)c2ccc(Br)cc2)c(=O)n(-c2ccccc2)n1C,"inconclusive [inhibitor, single point]",
C=CCn1c(N)c(C(=O)OC(C)(C)C)c2nc3ccccc3nc21,active: 11.6 µM,
COc1cc(NC(=O)c2ccco2)c(OC)cc1NC(=O)CCC(=O)Nc1cc(C)cc(C)c1,"inconclusive [inhibitor, partial curve]",
Cc1cccc2cc(C#N)c(NCc3ccccc3)nc12,,inactive: -4.54%
CN(C)c1ccc(-c2cc(NCc3ccccc3)ncn2)cc1,"inconclusive [inhibitor, full curve]",
O=C(c1cnn2c(C(F)(F)F)cc(-c3cccs3)nc12)N1CCN(C(c2ccccc2)c2ccccc2)CC1,active: 13 µM,
O=C(NCc1ccc(Cl)cc1)C1CCC(=O)N(C2CC2)C1 (stereo not drawn),,inactive: -7.76%
COc1ccc(Br)c(C(=O)NC2CCCC2)c1,,inactive: 4.4%
CN(CC(=O)Nc1ccc(N2CCOCC2)cc1)C(=O)CSc1ccc(F)cc1,,inactive: -23.8%
Cc1cc(=O)[nH]c2nnnn12,"inconclusive [inhibitor, single point]",
c1ccc(CC2CCN(C(c3cccs3)c3nnnn3C3CCCC3)CC2)cc1 (stereo not drawn),"inconclusive [inhibitor, single point]",
CCCn1cc(CN2CCCC(CNC(=O)c3ccc(F)cc3)C2)c(C)n1 (stereo not drawn),,inactive: 10.1%
COc1ccc(N2CCN(CC(=O)Nc3sccc3C#N)CC2)cc1,,inactive: -25%
CN(C)C(C)(C)C#CCC(c1ccccc1)c1ccccc1,"inconclusive [inhibitor, single point]",
COc1ccccc1C(CNC(=O)COc1cc(C)ccc1Cl)N1CCCC1 (stereo not drawn),"inconclusive [inhibitor, single point]",
O=C(Nc1ccc(F)cc1)C(Sc1nnc2ccccn12)c1ccccc1 (stereo not drawn),,inconclusive: -31.7% [inhibitor]

SMILES,Potency,"activity change, negative = growth inhibition"
O=C1CC2c3ccccc3C1C1C(=O)N(CCO)C(=O)C21 (stereo not drawn),"inconclusive [inhibitor, partial curve]",
CCn1c2ccccc2c2cc(NC(=O)CSc3nnc(-c4ccc(OC)cc4)n3N)ccc21,"inconclusive [inhibitor, single point]",
O=C(CN1CCN(CC(=O)Nc2ccccc2Cl)CC1)Nc1ccc(F)c(F)c1,active: 23.1 µM,
CCC(C)(C)NC(=O)c1cccc(NC(=O)C(C)C)c1,"inconclusive [inhibitor, single point]",
C/C(=N\NC(=O)Cc1cccn1C)c1ccc([N+](=O)[O-])cc1,,inactive: -9.66%
CCCN(CCC)C(=S)NC(=O)c1ccc(-c2ccccc2)cc1,"inconclusive [inhibitor, single point]",
CCC(C)NC(=O)CCc1nc2ccccc2n1-c1ccccc1 (stereo not drawn),"inconclusive [inhibitor, single point]",
COc1ccccc1CN1C(=O)CN(C2CCCCCC2)C(=O)C1c1ccc(F)cc1 (stereo not drawn),active: 17.8 µM,
Cc1ccc(CNC(=O)CCn2cnc3ccccc3c2=O)cc1,,inactive: 0.0832%
O=C(CSc1ccccc1)N1CCCC(Nc2ccccc2)C1 (stereo not drawn),"inconclusive [inhibitor, single point]",
OC(Cc1cccc(Br)c1)c1ncc(-c2cccc(C(F)(F)F)c2)[nH]1 (stereo not drawn),active: 16.4 µM,
OC(CN1CC=C(/C=C/c2ccc(Br)cc2)CC1)c1ccccc1 (stereo not drawn),"inconclusive [inhibitor, single point]",
CCN(C(=O)Nc1cn(CC(C)C)c(=O)c2ccccc12)c1cc(C)ccc1C,active: 9.2 µM,
Cc1ccc(S(=O)(=O)N2CCN(C(=O)CN3CCN(c4ccc(O)cc4)CC3)CC2)cc1,"inconclusive [inhibitor, single point]",
N=C1/C(=C\c2coc3ccccc3c2=O)C(=O)N=C2SC=CN12,"inconclusive [inhibitor, partial curve]",
CCCCn1cnc2c(SCc3ccc(Cl)cc3)nc(N)nc21,"inconclusive [inhibitor, single point]",
Cc1cc2[nH]c(=O)c(=O)[nH]c2cc1S(=O)(=O)Nc1cccc(F)c1,,inactive: -10.1%
COc1ccc(CCN2C(=S)N(C)C(=O)C2CC(=O)Nc2ccc(OC)cc2)cc1 (stereo not drawn),"inconclusive [inhibitor, single point]",
Cc1ccc(N2CC(NC(=O)c3ccc(S(=O)(=O)N4CCOCC4)cc3)CC2=O)cc1 (stereo not drawn),"inconclusive [inhibitor, single point]",
Cc1nc(-c2ccc(NC(=O)C3CCCCC3)cc2)cs1,active: 20.6 µM,
O=C(CCCCn1c(=O)[nH]c2ccccc2c1=O)NCCC1=CCCCC1,,inactive: -29.5%
O=C(NCc1ccccc1)C(c1ccco1)N(C(=O)c1csnn1)c1ccccc1F (stereo not drawn),,inconclusive: -32.1% [inhibitor]
CCOC(=O)c1cnn(-c2ccc(C(=O)Nc3cccc(C(C)=O)c3)cc2)c1N,"inconclusive [inhibitor, full curve]",
O=C(c1ccc2c(=O)n(Cc3ccco3)c(=S)[nH]c2c1)N1CCCC1,"inconclusive [inhibitor, single point]",
CCCCCc1c(CC)ncn1CCc1ccccc1OC,active: 2.91 µM,

SMILES,Potency,"activity change, negative = growth inhibition"
CC(=O)Nc1ccc(NC(=O)c2cccc(Oc3ccccc3)c2)cc1,"inconclusive [inhibitor, single point]",
CCOC(=O)N1CCN(C(=O)c2ccc([N+](=O)[O-])cc2Cl)CC1,"inconclusive [inhibitor, single point]",
N#Cc1c(-c2ccc(Cl)cc2)c2c([nH]c1=O)-c1ccccc1OC2,,inactive: 0.911%
COc1ccccc1N(CC1CO1)S(=O)(=O)c1ccccc1 (stereo not drawn),"inconclusive [inhibitor, single point]",
COc1cc(C(=O)N/N=C/c2ccsc2C)cc(OC)c1OC,active: 0.651 µM,
CCOc1ccc(S(=O)(=O)N2CCN(CC(O)COc3cccc([N+](=O)[O-])c3)CC2)cc1 (stereo not drawn),active: 23.1 µM,
COc1cccc2sc3cc(NCc4ccc(C)o4)ccc3c(=O)c12,,inactive: -29%
CC(=O)OC12CC3CC(C1)C(=NO)C(C3)C2,"inconclusive [inhibitor, single point]",
CCc1ccc2[nH]c(=O)c(CN(CCN3CCCC3)C(=O)NC3CCCCC3)cc2c1,active: 23.1 µM,
COc1cccc(-c2ccc(SCC(=O)NC3CCCC3)nn2)c1,,inactive: -8.73%
Cc1ccc(CN2CCNC(=O)C2CC(=O)NCC(F)(F)F)o1 (stereo not drawn),,inactive: -15.1%
COc1ccc2cc(C(=O)NCc3ccc4c(c3)CCN4C(=O)c3ccc(F)cc3)[nH]c2c1,active: 18.4 µM,
Cn1c(O)c(N=NC(=O)CNC(=O)/C=C/c2ccccc2)c2ccccc21,"inconclusive [inhibitor, single point]",
CC(=O)N1N=C(c2ccccc2)CC1c1ccc(F)cc1 (stereo not drawn),"inconclusive [inhibitor, single point]",
O=C(CNC(=O)c1ccccc1F)Nc1ccccc1C(F)(F)F,,inactive: -0.666%
CCCCCCCNC(=O)C1(CC2CC(c3ccc(Cl)cc3)=NO2)CCN(C(=O)c2ccccc2)CC1 (stereo not drawn),"inconclusive [inhibitor, single point]",
COc1cc(NC(=O)CN2C(=O)NC(C)(c3ccc(OC(F)F)cc3)C2=O)cc(OC)c1OC (stereo not drawn),"inconclusive [inhibitor, single point]",
Cn1c(-c2sc3cc(C(F)(F)F)cnc3c2-c2cccnc2)n[nH]c1=S,"inconclusive [inhibitor, single point]",
Cc1cccc2cc(C#N)c(NCCCn3ccnc3)nc12,"inconclusive [inhibitor, single point]",
COc1cc(C)cc2oc(=O)c(CC(=O)NCCc3ccc(Cl)cc3)c(C)c12,,inactive: -26%
Cc1cccc(C(=O)N2CCC(=O)N(C(COCc3cccc(Cl)c3)Cc3ccccc3)CC2)c1 (stereo not drawn),active: 16.4 µM,
O=C(CCn1c(=O)c2cccn2c2cccnc21)N1CCN(c2ccccc2F)CC1,active: 23.1 µM,
Cc1ccc(NC(=O)C2CCCCC2C(=O)O)cc1Cl (stereo not drawn),"inconclusive [inhibitor, partial curve, poor fit]",
